Source: the supplement of paper PMC7726561
The full ranking holds about 1,100 sequences; the median of “thermal melting temperature (Tm) of peptide-HLA complex” is about 58, and the lowest 2% start at about 42. Some of the results follow.

molecular target: HLA-A*02:01; experiment: thermal melting temperature (Tm) of peptide-HLA complex; higher = more thermostable pHLA complex; conditions: C1R-A*02:01
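Further: cell lysates heated 10 min at 37–73 °C, remaining pHLA pulled down with pan-class I antibody, peptides quantified by DIA-MS versus 37 °C, Tm where half the complex is lost.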

Sequence	thermal melting temperature
RLDELGGVYL	59.5 °C
KLWDIINVNI	64.2 °C
AQFEHTILL	58.1 °C
KLLDTMVDTFL	59.1 °C
SLENKILAV	63.9 °C
RLLDSEIKI	57.8 °C
FISERVEVV	57.6 °C
SLFGSPPTSV	57 °C
SLLESVQKL	57.6 °C
RLMNETTAVAL	55.2 °C
FMFDEKLVTV	58.5 °C
FTAEFLEKV	60.1 °C
KLLPYIVGV	63.2 °C
ALAKPPVVSV	62.2 °C
KADSVVVLL	57.9 °C
VLWDRTFSL	65.3 °C
KMDDPDYWRTV	60 °C
IQHSEFEEV	52.1 °C
TLLSNIQGV	62.3 °C

Sequence	thermal melting temperature
VLDDKLYVV	61.3 °C
ILLDERGQIKL	57 °C
TVMGKIFAV	61.8 °C
GLIGVGLINV	61.7 °C
NMLPQIFRV	58.4 °C
HLAELIAEL	62.4 °C
NIFPNPEATFV	55.8 °C
FVLPELPSV	59.5 °C
KVIDEIYRV	54.5 °C
VLFQGKIGL	55.8 °C
ALLPQNHKL	55 °C
VLLESEQFL	56.7 °C
ALRETVVEV	52.1 °C
TQILSVPKV	54.1 °C
VLIDTPGQIEV	58.6 °C
QLVPALAKV	58 °C
YLPDIIKDQKA	55.4 °C
LLLDVPTAAV	55.9 °C
KLHGVNINV	60 °C

Sequence	thermal melting temperature
FAIDPHLLLSV	58.8 °C
VILPTVHEV	60.9 °C
ILSGVIRSV	56.6 °C
SLPDFGISYV	57.3 °C
SLWFKPEEL	55 °C
TLLESIRQA	47.4 °C
YLNVQVKEL	55.7 °C
ILAEEPIYIRV	58.1 °C
AALEEADKMFL	53.3 °C
FGYPFRLNEA	53.6 °C
GLVDKLQAL	55.6 °C
LMISRTPEV	57.4 °C
FTQDSNYLL	49.1 °C
LLAEDDELHL	44.2 °C
FIDKHIAEL	59.4 °C
LLQEVEHQL	57.8 °C
MLFGHPLLV	57.9 °C
ALDHMVEYV	53.2 °C
